# Data: the supplement of paper PMC11417369
# The list shows a part of the results.
# Tested on: PfAP2-HC AP2 domain (GST-tagged)
# Experiment: gcPBM binding intensity (ln(normalized median fluorescence intensity)); higher = stronger DNA binding
# Method in brief: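 Probes on an Agilent 4 × 180k array were primer-extended, double-stranded and 36 bp long, taken from intergenic genomic regions, with negative controls added. GST-tagged P. falciparum DNA-binding domains from E. coli, about 25 μg on average, were applied to the array for 1 h in 1× PBS containing 1% milk, 0.2 mg/ml BSA, 0.5% salmon testes DNA and 0.03% Triton X-100. Binding intensity, obtained after Alexa488 anti-GST antibody detection and a 488 nm scan, is the highest Masliner-normalised natural-log median intensity across replicate spots of either probe orientation.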
row,Sequence,gcPBM binding intensity (ln)
1,ATTCTCCATGTTTGATGTACTCATATGACGACGGAG [XGTACX_site4923],9.52
2,ATATAAATAACGTGTACACACATATGTATTTATATA [CACACA_site6520],9.93
3,TTCTTATATTGTACAGTACACACCTTTATAATGTTA [CACACA_site7953],10
4,AATTATATTTGAAATACACACATAAAAACCATATAG [CACACA_site7598],9.92
5,TCAAAAAAGACACACCGTACATACTATTTGGACAGG [XGTACX_site7699],9.85
6,ATTTTTATTTTATATACACACAATAATACTAGAATA [CACACA_site7810],9.69
7,ATATATATCTACATATGTACATATATACATTACACA [XGTACX_site7210],9.84
8,AGATATATAAAATATACACACAGTAATATTTATATA [CACACA_site6767],9.86
9,ATTTCATATGGTCAACGTACTCATGCATCCCTCCTT [XGTACX_site437],9.74
10,CTAAGAAGTATTTACACACCAACAAGGCGAAAAAAA [CACACA_site2945],9.83
11,ATATCTTATATCTTCACACATACACAATAAATACAT [CACACA_site5028],9.94
12,AATGTATTCTCTCATGCACACTTTCTTTAAGGGACC [CACACA_site5245],9.66
13,ATATTTATATTTATGTGTACATATGAAATAATTATT [XGTACX_site7765],9.6
14,TAATATATTATGAGGGGTACATAATATGGTTTATTG [XGTACX_site8301],9.59
15,TAATATATTAATTTTTGTACTTAATTATATGTTTTT [XGTACX_site5654],9.66
16,GTTTTTAAATATGCCATACACACTACTATATAATAA [CACACA_site1927],9.67
17,GAAGAAAAAGAAAAAAGTACATATATTATATTATAA [XGTACX_site7870],9.48
18,TAAGATGATATAGACTGTACATATTGAACTTACAAG [XGTACX_site4290],9.48
19,TATGAAATGCTCCAATCACACATGAATGTAATATAT [CACACA_site5458],9.57
20,ATATGATTTATAAAGTGTACCTTATTATAAGAAACA [XGTACX_site7914],9.46
21,TTTTTTTTTTTTAGAGTACACACTTTTTTACATTTA [CACACA_site3836],9.58
22,GTTGAAAATACAGAACGTACACGTTTGCCATATTGT [XGTACX_site2254],9.69
23,AGTTATAAAATATTTGCATGTAAATATATTATCTAT [TGCATGCA_site1015],9.45

row,Sequence,gcPBM binding intensity (ln)
1,ACTTTTATTATTTATATACACACTTGCTGAAATGTT [CACACA_site3637],10.1
2,ACAATGAGGATATATACACACATACATTAAAAAAAT [CACACA_site6955],10.2
3,TTTTTCTGTTCTTTTTGTACTTAAATATATTTATTT [XGTACX_site5658],9.82
4,ATGTGTGTATTTTATAGTACAGTTACAAGCATTTTT [XGTACX_site6351],9.89
5,AAAAAAGAAAAAAGGACACACATAAATATACACCCG [CACACA_site5590],10.2
6,AGAATATAATTTTTATGTACATATATTAAATATATT [XGTACX_site8521],9.63
7,CACAAAAATAAACACACACACATATATATATATATA [CACACA_site4704],10.4
8,AATTTTCTACAAATGTGTACTAAATAAAATATTACT [XGTACX_site7175],9.57
9,TAAGTTCGAATTACTTAAATATTGATTTTTTTAAAA [TGCATGCA_negctrl_site114],9.19
10,AAGAAAAGCAAACAAGTGCATAATAACAAAAAAAAT [GTGCAC_site9725],9.89
11,TATTTATTTATAAACACACAAATATTTTTATTTATA [CACACA_site6889],9.55
12,TCATAAAATATGTTTTGTACATAAAATTAAACAAGT [XGTACX_site1763],9.59
13,AAATAAGAGAAAATATGTACATACATATATTTATAT [XGTACX_site6210],9.87
14,AAATATAAATAAAGATGTACATTATCTATATGTGAT [XGTACX_site4863],9.73
15,ATATAATTTGTTATACTAACTTTTTAATTATTGATA [GTGCAC_negctrl_site443],9.55
16,AATACGTTTATATATTGTACGTTATATATATATATA [XGTACX_site7452],9.66
17,ATCCGTGTCTGAAATACACACATGATAATGTGAATG [CACACA_site8210],9.67
18,ATGGAAACAAGCATCACACATATAAATATATATATA [CACACA_site4979],9.72
19,AACGAAAGAAAAAAAGCACACACAGTTTTGAGCAAT [CACACA_site8658],10.2
20,ACCATGATAAATGTATTAAATGTATCATAACCTATG [CACACA_negctrl_site513],9.63
21,AGGAATTTATAAAATTGTACTTTTAATTACCTACAG [XGTACX_site3153],9.61
22,CAAACATTTTAATGTACACACACCCACAGACAAACA [CACACA_site5522],10.2
23,TTCTTTTTGAAATATTAACACACATTTTGTTAATTA [CACACA_site9337],9.78

row,Sequence,gcPBM binding intensity (ln)
1,ATATATTTTATACATACACACATATATATATTTTTT [CACACA_site3940],9.9
2,TGATTAAATCAAGAAAGTACAAAATGAAATATATAA [XGTACX_site4319],9.54
3,AAAATAATTTTATAGTTGCACTATATCGTATACAAT,9.71
4,TAAAGTGTAAAATTCACACACATATAAATAAATATA [CACACA_site6765],9.93
5,TAATATGAAGATGGCAGTACTCTAGTCAATTTTTAC [XGTACX_site5375],9.68
6,AATTCAAAGAAAAACTGTACGTGTAGCAAACATCCT [XGTACX_site599],9.69
7,AAAATATATAAATATACATGCATAATTAATAGTATA [TGCATGCA_site804],9.78
8,TACAAAAGCTATAACATTCACCACATTATAAAAATA [CACACA_negctrl_site1112],9.78
9,TTTAAAAAAAAAAATACACACATAAAAGTTTTCAAA [CACACA_site6471],9.71
10,TTTTCATTAAGATACTTATAATAGTTTATTAGTAAA [CACACA_negctrl_site586],9.32
11,TTACAAATATTATAATGTACCCATTTTTTTTGCCTT [XGTACX_site6612],9.57
12,ATATCATCTTCTCTATCATTTTTTTTTTTTTTTTTT [CACACA_negctrl_site1220],9.6
13,TGAGATAAATGTGGTAGTACATTTTTTTTATATATA [XGTACX_site1918],9.48
14,CAAAAATTACCCTTGTGTACACATATATTATATGTA [XGTACX_site1124],9.88
15,ATAAAAAAATCAGACACACACACGTAAACACATACA [CACACA_site5529],10.9
16,CTTTTTTTTTTTTTTTGTCCGTATGAGGGACCTATA [XGTACX_site8839],9.45
17,TCCATTGTCACCTTTTGTACTTAAATTTTTTCCTCC [XGTACX_site1573],9.6
18,ATGTTATAATTTAGTGTGCACATATTAAGAGGAACA,10.1
19,ATATATATTTATATATGTACATATTTTTGTGTATTT [XGTACX_site1183],9.93
20,ATATATATATATATATGTACATAATAATTTTATAAA [XGTACX_site5105],9.74
21,AATAATAATAGAAACACACACACATTTTTAATAATA [CACACA_site1217],10.5
22,TTAATTATGTTTTGGTGTACAATAAATTGAATAGAT [XGTACX_site3306],9.53
23,CTACTTAATATTTGTACACACATATTTAACCTACTA [CACACA_site5725],10.2

row,Sequence,gcPBM binding intensity (ln)
1,TATACATACCCACCCACACACAAAAAAAAAAAAAAA [CACACA_site4632],10.2
2,TATACTCATAAATACACACACATATATATATATATA [CACACA_site5822],9.99
3,GGGGGCTTTTATAAAAGTACAAAATGAATAAAAATT [XGTACX_site2393],9.41
4,TCTTTATTATTCGCCACACACATATATATATATATA [CACACA_site3077],10.1
5,TATATATATAAAAATACACACATGAATGAATATATA [CACACA_site419],9.87
6,AAAATATAATATAATGCACACATAAAAAAAAAATCA [CACACA_site7922],10.1
7,TATCTGTAAATGGACACACACATATATATATATATA [CACACA_site5926],9.99
8,ATATTGTGTTATAAATGTACACAATTTCCTTTCATA [XGTACX_site7481],9.63
9,ATATATGTTCCTTTTACACACATAATCTTTTTTTTA [CACACA_site2661],9.99
10,TTTTTAAAAATATACACACACAGATATTATATATAT [CACACA_site786],10.4
11,AAAATATAATATAATGCACACATAAAAAAAAAAAAA [CACACA_site7989],9.84
12,AAAAAAAAGGAAATAACACACATGTATATATCTATA [CACACA_site6856],9.84
13,TTCATATAGAATTGTACACACAAAAACGACATTGTG [CACACA_site7061],9.81
14,ATATATATATGTATGTATATATATATATATGTTTGA [GTGCAC_negctrl_site561],9.79
15,GGGGACGCGGGTGGGGGTACTCACACTATGCAAAAT [XGTACX_site7745],9.74
16,GTATCAATAAAAAACAGTACATATATAATATATTTA [XGTACX_site1083],9.62
17,TGAGATAACAAAAGTTGTACTTTTTTTTTTTTTTTT [XGTACX_site3004],9.38
18,AAATATATATAAAACTCACACATTATCTTATAACCA [CACACA_site5268],9.82
19,TTTAATAAAAAAATTAAAAATAAAGAAAAAAAAAAA [CACACA_negctrl_site1464],9.42
20,ATGTATGGAAATTTTACACACAAGAGTAGTTTAAAA [CACACA_site1710],9.9
